# Laboratory results: PubChem BioAssay AID1476 (National Center for Advancing Translational Sciences (NCATS), 2009)
# Hit rate of the full screen: of about 200,000 compounds, about 4,500 (2.2%) were called active. Inconclusive results, whose numbers are uncertain, are shown with a selection of clear calls. Calls come from the whole dose curve; as a rule, active = well fitted inhibition curve with a large enough effect; inconclusive = small, poorly fitted or top-dose-only effect, or effect the other way; inactive = flat fitted curve, though single readings scatter. A potency beside an inconclusive call is a rough fit, not a confirmed value.
# Target: Cruzipain (Trypanosoma cruzi) (UniProt P25779)
# Test: qHTS Assay for Promiscuous and Specific Inhibitors of Cruzain (without detergent); note: nearly all actives have a fitted effect of over 40% in size;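 for max response, negative = inhibition: plate controls were enzyme without inhibitor for no effect and buffer without enzyme for full effect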
# Conditions: purified cruzain, Z-FR-AMC fluorescence, no detergent
# In short: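 Purified cruzain at 1.5 nM, pre-incubated 15 min with compound at room temperature in 100 mM sodium acetate pH 5.5, 5 mM DTT, 0.00005% Triton X-100. Reaction started with 2 uM Z-FR-AMC; AMC fluorescence increase over 60 s gives rate.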
# Potency is the fitted concentration of half-maximal effect; tags give direction and shape of the fitted curve.
# UniProt P25779, sequence (P25779 whole entry, looked up): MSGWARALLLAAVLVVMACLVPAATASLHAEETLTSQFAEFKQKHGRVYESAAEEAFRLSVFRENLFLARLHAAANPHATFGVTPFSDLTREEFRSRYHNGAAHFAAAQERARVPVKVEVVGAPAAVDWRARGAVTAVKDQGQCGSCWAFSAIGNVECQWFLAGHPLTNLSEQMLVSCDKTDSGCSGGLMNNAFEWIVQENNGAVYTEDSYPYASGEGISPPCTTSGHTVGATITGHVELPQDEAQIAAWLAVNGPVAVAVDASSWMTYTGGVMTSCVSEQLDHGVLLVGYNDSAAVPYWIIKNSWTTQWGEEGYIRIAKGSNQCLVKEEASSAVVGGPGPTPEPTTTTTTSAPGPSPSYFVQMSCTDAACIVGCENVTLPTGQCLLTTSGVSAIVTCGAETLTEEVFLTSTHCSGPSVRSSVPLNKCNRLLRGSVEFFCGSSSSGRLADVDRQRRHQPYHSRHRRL
Compound,Potency,"max response, negative = inhibition"
COc1ccc(-c2ccccc2)cc1NCc1ccc(OC)c(OC)c1,"inconclusive: 25.1 µM [activator, single point]",
CCOc1cccc(CC(=O)NCc2ccc3c(c2)CCN3C(=O)c2ccc(F)cc2)c1OCC,"inconclusive: 25.1 µM [activator, single point]",
CN1CCCc2cc(C#N)c(=O)[nH]c21,"inconclusive: 39.8 µM [inhibitor, single point]",
N#Cc1c(-c2ccc(C(F)(F)F)cc2)cc(-c2ccccc2)[nH]c1=S,,inactive: -14.8%
CCN(C(=O)CSc1nnc(-c2cc(OC)c(OC)c(OC)c2)o1)c1ccccc1,,inactive: -2.49%
CCSc1nnc(NC(=O)COc2cccc3ccccc23)s1,active: 12.6 µM,
Cc1cccc(Nc2ncc(NC(=O)c3cccc(F)c3)c(Nc3cccc(C)c3)n2)c1,"inconclusive: 39.8 µM [inhibitor, single point]",
Cc1cc(C)c(C)c(S(=O)(=O)N2CCN(CC(=O)NC(=O)NCc3ccccc3)CC2)c1C,"inconclusive: 25.1 µM [activator, single point]",
COc1ccc(NC(C)C(=O)Nc2cc(C(F)(F)F)ccc2N2CCOCC2)c(OC)c1 (configuration not stated),"inconclusive: 31.6 µM [activator, single point]",
COc1ccc([N+](=O)[O-])cc1C1NN=C(c2cccc3ccccc23)S1 (configuration not stated),active: 7.94 µM,
COc1ccc2c(CC(=O)Nc3ccc(C)cc3)coc2c1,,inactive: -14.1%
COc1ccc(N/N=C(/C)c2cnnc(-c3ccccc3)n2)cc1,active: 15.8 µM,
COc1ccc(S(=O)(=O)c2c(Nc3c(C)cccc3C)sc(C(=O)c3ccc4c(c3)OCO4)c2N)cc1,active: 7.94 µM,
COc1cc(/C=N/NC(=O)Nc2ccccc2)ccc1OCCOc1ccccc1C,active: 25.1 µM,
Cc1ccc(-c2ccc(OCC(=O)N3CCOCC3)cc2)cc1,"inconclusive: 39.8 µM [activator, single point]",
COc1cccc(Cn2cnc3c(NS(=O)(=O)c4cccc(Cl)c4Cl)c(C)c(C)cc32)c1,"inconclusive: 31.6 µM [inhibitor, single point]",
CCNc1ncc2nc(-c3ccc(F)cc3)c(=O)n(CCOC)c2n1,,inactive: 1.89%
Cc1cc(C)n2nc(SCc3cc(=O)oc4cc(C)c(C)cc34)nc2n1,"inconclusive: 39.8 µM [activator, single point]",
O=C(Cn1ncc2c3ccccc3n(Cc3ccc(F)cc3)c2c1=O)N1CCN(c2ncccn2)CC1,"inconclusive: 39.8 µM [activator, single point]",
CCCCOc1ccc(C(=O)NCCc2sc(-c3ccc(OC)c(OC)c3)nc2C)cc1,"inconclusive: 39.8 µM [activator, single point]",
CCC(=O)NCC(=O)OCC(=O)c1ccccc1,,inactive: 3.12%
COc1cc(/C=N\Nc2ccc([N+](=O)[O-])cc2)ccc1OCC(=O)Nc1ccc(C)c(C)c1,active: 3.98 µM,
COc1cccc(CN2CCCN(CC(=O)Nc3ccc4c(c3)OCCO4)S2(=O)=O)c1,,inactive: 9.02%

Compound,Potency,"max response, negative = inhibition"
CC(C)CCn1c(N2CCN(c3cccc(Cl)c3)CC2)nc2c1c(=O)[nH]c(=O)n2C,"inconclusive: 31.6 µM [activator, single point]",
CCOC(=O)c1ccc(-c2ccc(/C=C(\C#N)C(=O)NCC3CCCO3)o2)cc1 (configuration not stated),"inconclusive: 31.6 µM [activator, single point]",
CCc1ccc(CN(Cc2ccco2)c2cnc(S(C)(=O)=O)nc2C(=O)Nc2c(C)cccc2C)cc1,"inconclusive: 39.8 µM [inhibitor, single point]",
CCOC(=O)N1CCN(C(=O)c2cc3c(s2)-c2ccccc2OC3)CC1,"inconclusive: 25.1 µM [activator, partial curve]",
COc1cc(NC(=O)CN(c2ccc(C)cc2)S(=O)(=O)c2c(C)nn(C)c2C)cc(OC)c1,"inconclusive: 25.1 µM [activator, partial curve]",
COCCNc1oc(-c2ccccc2Cl)nc1C#N,"inconclusive: 39.8 µM [activator, single point]",
CCOc1ccc(Br)cc1S(=O)(=O)Nc1ccc(C(=O)Nc2ccccc2OC)cc1,active: 15.8 µM,
COc1cccc(CNC(=O)Cc2ccc(NC(=O)N3CCSc4ncccc43)cc2)c1OC,,inactive: 5.02%
Cc1[nH]c2ccccc2c1C(c1ccccc1)c1ccc(Cl)s1 (configuration not stated),"inconclusive: 31.6 µM [inhibitor, single point]",
CCN(CC)CCNC(=O)CSc1nc2nc(C)c(Cc3ccccc3)c(C)n2n1,,inactive: -0.669%
COc1ccccc1NC(=O)CSc1nc2nccnc2c(=O)n1CCc1c[nH]c2ccccc12,,inactive: 3.58%
Cc1ccc(C(=O)NCC(=O)OCC(=O)Nc2cc(C)c(C)cc2[N+](=O)[O-])cc1,active: 10 µM,
COc1cccc(C2CC(C(F)(F)F)n3ncc(C(=O)O)c3N2)c1 (configuration not stated),"inconclusive: 0.0501 µM [inhibitor, full curve, poor fit]",
O=C(Oc1ccccc1N1C(=O)CCC1=O)c1ccco1,"inconclusive: 39.8 µM [activator, single point]",
CCOc1ccc(CNC(=O)c2cnc3sc(N4CCOCC4)nn3c2=O)cc1OC,,inactive: 30.4%
O=C(NC(=S)Nc1cccc(NC(=O)c2ccc(Cl)cc2Cl)c1)c1cccs1,"inconclusive: 39.8 µM [inhibitor, single point]",
CC(C)C[C@@H](CC(=O)N[C@@H](CCCN)CC(=O)N[C@@H]1CCNC[C@H]1C(=O)N[C@H](CC(=O)N[C@@H](CCC(=O)O)CC(=O)O)CC(C)C)NC(=O)[C@@H]1CNCC[C@H]1N,,inactive: -3.76%
Cc1cccc(N2CCN(C(=O)CN3C(=O)COc4ccc(S(=O)(=O)N5CCC(C)CC5)cc43)CC2C)c1 (configuration not stated),"inconclusive: 39.8 µM [activator, single point]",
Cc1ccc(/C=C2\SC(N3CCN(C(c4ccccc4)c4ccccc4)CC3)=NC2=O)o1,active: 7.94 µM,
COc1ccc(NC(=O)Cn2c(=O)n(-c3ccc(OC)cc3OC)c(=O)c3c(C)c(C)sc32)cc1,"inconclusive: 39.8 µM [activator, single point]",
CN(c1nc2c(c(=O)n(C)c(=O)n2C)n1CC(=O)c1ccccc1)C1CCCCC1,"inconclusive: 39.8 µM [activator, single point]",
C#CCOCCOCCOCCNc1nc(N2CCN(C(=O)[C@H](Cc3ccc(O)cc3)n3cc(CCO)nn3)CC2)nc(N2CCN(C(=O)[C@H](Cc3ccc(O)cc3)n3cc(CCO)nn3)CC2)n1,"inconclusive: 15.8 µM [activator, partial curve]",
CCOc1ccc(CC(=O)Nc2c(C(=O)Nc3ccc(OC)cc3OC)oc3ccccc23)cc1,,inactive: 3.22%

Compound,Potency,"max response, negative = inhibition"
CCOC(=O)N1CCN(C(=O)CCn2c(=S)[nH]c3cc(OCC)c(OCC)cc3c2=O)CC1,"inconclusive: 25.1 µM [activator, partial curve]",
N#CC1=C(SCC(=O)c2cc3ccccc3oc2=O)NC(=O)C(C#N)C12CCCC2 (configuration not stated),"inconclusive: 39.8 µM [inhibitor, single point]",
NS(=O)(=O)c1ccc(CCNC(=O)c2ccc3nc(CCc4ccccc4)oc3c2)cc1,,inactive: -1.78%
Cc1cc(NC(=O)CSc2nc(-c3cccnc3)ccc2C#N)no1,"inconclusive: 20 µM [inhibitor, partial curve]",
CCc1ccc(OCC(=O)NNC(=O)CSc2nnc(-c3ccc(C)cc3)n2C)cc1,"inconclusive: 39.8 µM [inhibitor, single point]",
CCOC(=O)c1c(S(=O)(=O)N2CCCC(C(=O)Nc3cccc(C#N)c3)C2)c(C)n(C)c1C (configuration not stated),,inactive: -6.39%
CC(C)(C)c1csc(NC(=O)Cn2c(=O)oc3ccccc32)n1,"inconclusive: 3.98 µM [inhibitor, single point]",
Cc1ccccc1CNC(=O)c1cccc(NC(=O)N2CCSc3ncccc32)c1,,inactive: -24.9%
Cc1cccc(NC(=O)c2ccc(C3SCC(=O)N3CCc3ccccc3)cc2)c1C (configuration not stated),"inconclusive: 39.8 µM [inhibitor, single point]",
Cc1nc2ccccc2c2c1C(=O)N(C(C)C)C2=O,"inconclusive: 39.8 µM [activator, single point]",
COc1ccc(N2C(=O)CS(=O)(=O)C23C(=O)N(Cc2ccc(F)cc2)c2ccc(C)cc23)cc1 (configuration not stated),active: 3.16 µM,
Cc1ccc(C(=O)c2cn[nH]c2-c2cc(Cl)ccc2O)cc1,,inactive: -0.506%
CC/C=C1/OC(=O)c2ccccc21,,inactive: 0.314%
Cc1ccc(C)c(NC(=O)c2ccc3c(c2)CCCN3S(C)(=O)=O)c1,,inactive: 5.24%
S=c1ccss1,,inactive: -11.7%
COc1cccc(NC(=O)c2oc3ccccc3c2NC(=O)c2ccc(F)c(F)c2)c1,,inactive: -17.9%
CC(C)CC(NS(=O)(=O)c1ccc2c(c1)oc(=O)n2C)C(=O)NC1CCCc2ccccc21 (configuration not stated),"inconclusive: 39.8 µM [inhibitor, single point]",
N[C@H](C(=O)O)c1ccc(C(=O)O)cc1,,inactive: 3.63%
CCc1cc2c(=O)c(-c3cnn(-c4ccccc4)c3)c(C)oc2cc1OCC(=O)Nc1cccc(C)c1,"inconclusive: 5.01 µM [inhibitor, full curve]",
CCc1ccc(C(=O)c2cn(CC(=O)Nc3cc(OC)ccc3OC)c3nc(C)ccc3c2=O)cc1,,inactive: -3.38%
COC(=O)CC1[C@@]2(C)C[C@@]34OC5(C)OC6(CC[C@@]7(C)C(c8ccoc8)OC(=O)C(C(C)=O)C7[C@]6(O5)C(O)[C@@]3(O)C2O)[C@]14C (some centres not stated),"inconclusive: 31.6 µM [activator, single point]",
